Out of some 310,000 compounds screened, about 2,200 (0.71%) showed an effect of 50% or more. Effects have a minus sign here. The list shows a part of the results.
Molecular target: human ether-à-go-go-related gene (hERG) potassium channel (human, UniProt Q12809)
Assay: primary screen, population patch clamp on CHO cells stably expressing hERG

human ether-à-go-go-related gene (hERG) potassium channel, sequence (Q12809 whole entry, looked up): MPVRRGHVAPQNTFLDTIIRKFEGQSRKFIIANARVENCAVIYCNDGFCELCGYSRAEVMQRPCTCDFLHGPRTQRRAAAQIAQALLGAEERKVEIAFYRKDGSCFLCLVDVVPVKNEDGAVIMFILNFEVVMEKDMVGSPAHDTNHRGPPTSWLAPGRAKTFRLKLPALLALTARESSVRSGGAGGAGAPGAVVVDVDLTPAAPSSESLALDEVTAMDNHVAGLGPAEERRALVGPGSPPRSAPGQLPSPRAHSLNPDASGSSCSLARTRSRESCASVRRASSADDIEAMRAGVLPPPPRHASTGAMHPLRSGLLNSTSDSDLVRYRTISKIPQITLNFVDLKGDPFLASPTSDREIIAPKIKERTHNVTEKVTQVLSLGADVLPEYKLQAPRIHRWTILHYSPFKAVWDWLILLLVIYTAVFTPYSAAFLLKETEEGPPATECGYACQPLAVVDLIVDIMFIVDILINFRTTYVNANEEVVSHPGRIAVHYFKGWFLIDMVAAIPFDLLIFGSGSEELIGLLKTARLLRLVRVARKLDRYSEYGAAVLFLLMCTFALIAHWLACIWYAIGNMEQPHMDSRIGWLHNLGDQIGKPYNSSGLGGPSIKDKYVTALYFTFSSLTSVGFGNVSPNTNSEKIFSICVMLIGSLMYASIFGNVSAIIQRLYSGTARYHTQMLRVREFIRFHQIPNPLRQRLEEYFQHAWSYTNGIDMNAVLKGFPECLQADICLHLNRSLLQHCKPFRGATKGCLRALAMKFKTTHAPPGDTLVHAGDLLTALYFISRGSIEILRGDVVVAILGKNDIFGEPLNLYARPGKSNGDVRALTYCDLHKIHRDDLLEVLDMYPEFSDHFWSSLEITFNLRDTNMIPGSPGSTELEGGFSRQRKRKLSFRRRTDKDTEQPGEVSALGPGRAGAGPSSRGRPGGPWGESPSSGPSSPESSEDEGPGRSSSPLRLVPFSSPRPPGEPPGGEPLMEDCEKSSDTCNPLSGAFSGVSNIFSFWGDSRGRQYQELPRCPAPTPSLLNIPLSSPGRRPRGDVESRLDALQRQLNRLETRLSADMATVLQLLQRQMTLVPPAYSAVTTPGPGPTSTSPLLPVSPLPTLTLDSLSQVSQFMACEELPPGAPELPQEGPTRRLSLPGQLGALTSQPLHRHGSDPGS

Row | SMILES | hERG current change (%, negative = inhibition) at 1uM [%]
1 | CCCC(=O)Nc1ccc(NC(=O)c2ccccc2Cl)nc1 | 9.41
2 | CCC(=O)Nc1cccc(NC(=O)c2ccccc2Br)c1 | 3.69
3 | Cc1ccc(-c2csc(NC(=O)C3CSC4(C)CCC(=O)N34)n2)cc1 (centres unmarked) | 11.6
4 | COc1ccc(N2C(=NC(=O)C3CCCO3)SC3CS(=O)(=O)CC32)cc1 (centres unmarked) | 13.1
5 | CC(C(=O)NCC(=O)Nc1ccc(F)c(F)c1F)N1CCN(c2ccc(O)cc2)CC1 (centres unmarked) | 4.56
6 | C/C=C/c1ccc(OCC(=O)O)c(OC)c1 | 15.2
7 | O=C(CS(=O)(=O)c1cn(Cc2ccc(Cl)cc2)c2ccccc12)N1CCCC1 | 4.17
8 | CCN1CCN(C(=S)Nc2cc(S(=O)(=O)N(CC)CC)ccc2C)CC1 | 8.19
9 | O=c1ncn(-c2cccc([N+](=O)[O-])c2)c2ccccc12 | 0.955
10 | CC(NC(=O)C1CCN(S(=O)(=O)c2ccc3c(c2)NC(=O)CO3)CC1)c1ccccc1 (centres unmarked) | -8.13
11 | COc1ccc(OCC(=O)NNC(=O)c2cccs2)cc1 | 9.13
12 | CC(/C=N/n1c(COc2ccccc2)n[nH]c1=S)=C\c1ccccc1 | 10.2
13 | COC(=O)c1c(C)[nH]c(C(=O)C(C)OC(=O)c2cc(C)oc2C)c1C (centres unmarked) | 1.12
14 | COc1ccc(S(=O)(=O)N2CCNCC2)cc1 | 5.56
15 | O=C(COc1ccccc1)NC(NC(=S)Nc1ccccc1O)C(Cl)(Cl)Cl (centres unmarked) | 17.3
16 | Cc1nc(-c2ccccc2)sc1C1(C)CC(c2cccc(F)c2)=NO1 (centres unmarked) | 12.6
17 | COc1cccc(Nc2ncnc3sccc23)c1 | 16.9
18 | C=C(C)Cn1c(SCC)nc2ccccc2c1=O | 3.34
19 | COc1ccc(-c2cc(C(=O)N3CCCC3)c3ccccc3n2)cc1OC | 9.37
20 | Cc1ccc(CN(CC(=O)NCCc2ccccc2)C(=O)CCCC(=O)Nc2cc(C)on2)cc1 | -15

Row | SMILES | hERG current change (%, negative = inhibition) at 1uM [%]
21 | O=C(CSc1nnc(-c2ccc(O)cc2)n1Cc1ccco1)c1ccccc1 | 5.2
22 | Cc1ccc(CNC(=O)c2ccc3c(=O)n(CC4CCCO4)c(=S)[nH]c3c2)cc1 (centres unmarked) | -3.16
23 | Cc1nc2sc3c(c2c(=O)[nH]1)CCCCC3 | 5.7
24 | CCOc1cc(C(C#N)N2CCOCC2)ccc1OC (centres unmarked) | 9.2
25 | CCOc1ncccc1C(=O)Nc1ccc(F)c(F)c1 | 5.21
26 | Cc1ccsc1C(=O)N1CCC(CO)(Cc2ccccc2)CC1 | 4.1
27 | O=C(CSc1nnc2ccccn12)NCc1ccco1 | 24.9
28 | Cc1ccc(C(=O)NCc2ccc(N3CCN(C)CC3)cc2)cc1C | 9.65
29 | Cc1cccc(NC(=O)c2cc(S(=O)(=O)N3CCCC3)cn2C)c1 | 13.2
30 | Cc1nn(-c2ccccc2)c2c1C(c1ccc([N+](=O)[O-])cc1)N1C(=N2)C(=O)Nc2ccccc21 (centres unmarked) | -2.47
31 | CC1=C(C(N)=O)C(c2ccccn2)n2nc(SCc3ccccc3)nc2N1 (centres unmarked) | 1.07
32 | COc1cc(NC(=O)NCC2CCN(Cc3ccccc3C)CC2)cc(OC)c1OC | 8.38
33 | CCOC(=O)Cn1c(-c2ccccc2)nc2ccccc2c1=O | -1.44
34 | C=CCn1cccc(C(=O)Nc2ccc(OC)cc2OC)c1=O | 13.7
35 | CN(CC1CCCO1)S(=O)(=O)c1ccc(C(=O)Nc2nc3cc4c(cc3s2)OCO4)cc1 (centres unmarked) | 7.58
36 | COc1cc(OC)cc(-n2nnnc2SCC(=O)N2CCCC2)c1 | -11.2
37 | CN(C)c1ccc(/C=N/NC(=S)NCc2ccco2)cc1 | 4.56
38 | O=C(Cn1nnc(-c2cccc(C(F)(F)F)c2)n1)N1CCOCC1 | -3.38
39 | N#C/C(=C\c1ccccc1)C(=O)N1CCN(c2ccccc2F)CC1 | 15.3
40 | CC(C)NC(=O)CCCn1c(=S)[nH]c2cc3c(cc2c1=O)OCO3 | 4.4

Row | SMILES | hERG current change (%, negative = inhibition) at 1uM [%]
41 | CCOc1cccc2cc(C(=O)NCc3ccc(C)cc3)c(=N)oc12 | 11.6
42 | CCc1ccc(OCC2c3cc(OC)c(OC)cc3CCN2C(=S)NCCOC)cc1 (centres unmarked) | 7.43
43 | COCCCn1cn[nH]c1=S | 10.8
44 | COc1ccccc1NC(=S)NCc1ccccn1 | 2.03
45 | Cc1cc(OCC(=O)N2CCCC2)ccc1Cl | 3.99
46 | c1ccc2c(c1)ncn2CCCOc1ccc2c(c1)CCC2 | 0.906
47 | CCOC(=O)c1ccccc1NC(=S)N1CCN(C(=O)c2ccco2)CC1 | 14.4
48 | Cc1cccc(C)c1NC(=O)CNC(=O)c1c(C)nn(C)c1Cl | 15.2
49 | O=C(O/N=C(\c1ccccc1)c1ccncc1)c1ccccc1F | 12.2
50 | Cc1ccc(S(=O)(=O)N(C)CCCC(=O)Nc2ccccn2)cc1 | 9.9
51 | CCN(Cc1ccncc1)Cc1cn[nH]c1-c1ccc(OC)cc1F | 14.2
52 | CC(C)CNC(=O)COc1ccc2c3c(c(=O)oc2c1)CCC3 | 11.3
53 | Cc1cc2c(cc(C(=O)N3CCC(C(=O)NC4CCCC4)CC3)n2Cc2c(F)cccc2Cl)o1 | 9.07
54 | O=C(NNC(=O)c1csc(N2CCOCC2)n1)c1ccc(Cl)nc1 | 8.14
55 | CS(=O)(=O)N(CC(=O)N1CCCCC1)c1sc2c(c1C#N)CCCC2 | -9.12
56 | CC(C)=CCSc1nnc([C@@H](N)Cc2c[nH]c3ccccc23)o1.Cl | 19.2
57 | COc1ccc(C(c2sc3nc(C)nn3c2O)N2CCN(Cc3ccccc3)CC2)cc1OC (centres unmarked) | 3.82
58 | c1ccc(CCn2nnnc2C(c2cccnc2)N2CCOCC2)cc1 (centres unmarked) | 11.6
59 | Cc1cc(-c2cc(C(=O)O)c3ccccc3n2)c(C)s1 | 1.09
